Assay results reported in publication PMC6919601, “Identification of Plasmodium dipeptidyl aminopeptidase allosteric inhibitors by high throughput screening” (PLoS ONE, 2019).
Hit rate of the full screen: of about 110,000 compounds, about 230 (0.21%) showed an effect of 50% or more. The list shows a part of the results.

Biological target: DPAP1 (Plasmodium falciparum, UniProt Q8IIJ9)
Assay: primary screen, percent inhibition; read by cleavage of a fluorogenic dipeptide substrate; higher = more effect of the substance
Set-up: species or system P. falciparum D10 trophozoite lysates; single well
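Also: 30 min substrate incubation versus DMSO and 10 µM JCP410 controls.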

Chain of DPAP1 (Q8IIJ9 whole entry, looked up): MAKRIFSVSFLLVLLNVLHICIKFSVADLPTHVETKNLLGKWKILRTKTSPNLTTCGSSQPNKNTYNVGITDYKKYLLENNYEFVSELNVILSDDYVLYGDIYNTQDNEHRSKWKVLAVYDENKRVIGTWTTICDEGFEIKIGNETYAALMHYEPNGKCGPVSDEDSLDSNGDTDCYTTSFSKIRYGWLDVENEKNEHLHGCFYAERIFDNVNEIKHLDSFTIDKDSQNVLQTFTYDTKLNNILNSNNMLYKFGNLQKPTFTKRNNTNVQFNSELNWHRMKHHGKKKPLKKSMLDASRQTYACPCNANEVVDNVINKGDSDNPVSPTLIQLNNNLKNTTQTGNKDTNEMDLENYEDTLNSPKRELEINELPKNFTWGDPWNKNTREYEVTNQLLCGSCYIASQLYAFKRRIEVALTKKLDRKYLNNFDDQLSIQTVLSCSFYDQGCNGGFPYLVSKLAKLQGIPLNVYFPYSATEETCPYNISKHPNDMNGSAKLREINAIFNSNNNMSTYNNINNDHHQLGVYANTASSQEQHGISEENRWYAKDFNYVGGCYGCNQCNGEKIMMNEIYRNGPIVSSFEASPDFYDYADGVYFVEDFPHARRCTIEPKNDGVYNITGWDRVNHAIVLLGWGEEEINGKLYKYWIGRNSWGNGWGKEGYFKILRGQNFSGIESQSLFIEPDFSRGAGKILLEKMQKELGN

| Compound | % Inhibition @ 10 uM |
| --- | --- |
| CC(C)N1Cc2c(sc3c2CCCC3)N(C(=O)c2ccccc2)C1 | -4% |
| COc1ccc(-c2c(C)s/c(=N\C(=O)c3ccc(OC)c(OC)c3)n2C)cc1 | -6.05% |
| CC(Nc1nc(N2CCN(S(C)(=O)=O)CC2)nc2ccccc12)c1ccccc1 (centres unmarked) | -4.78% |
| CCOc1ccc(C(=O)N(Cc2nc(-c3ccc(Cl)cc3)no2)C(C)C)cc1 | -1.84% |
| CCC1CCCCN1C1=CC(=O)OC12CCCCC2 (centres unmarked) | 3.38% |
| CC(Oc1ccc(F)cc1)C(=O)NCCN1CCOCC1 (centres unmarked) | 0.565% |
| Cc1c(Cl)cccc1-n1ncnc1-c1ccc2c(c1)OCO2 | 1.57% |
| NC(=O)c1c(NC(=O)c2ccc(F)cc2)sc2c1CCCCC2 | -1.89% |
| CCOC(=O)c1[nH]c(C)c(/C(C)=N/O)c1C | -2.44% |
| CN(CCc1ccccn1)Cc1ccccc1F | -0.292% |
| Cn1cccc1Cc1nnc(SCC(=O)Nc2nccs2)n1-c1ccc(Cl)cc1 | 5.32% |
| COc1ccc(C2C(C#N)=C(N)Oc3[nH]nc(C)c32)cc1OCc1ccc(C(=O)OCC(C)C)cc1 (centres unmarked) | 1.52% |
| Brc1ccc(Nc2nc(-c3ccc(-c4ccccc4)cc3)cs2)cc1 | -2% |
| OCc1nc2ccccc2n1Cc1cccc(Cl)c1 | -4.07% |
| CCCCn1c(SCc2cccc(OC)c2)nc2c1c(=O)n(C)c(=O)n2C | 1.76% |
| N#CC1(NC(=O)[C@H](Cc2c(F)cccc2F)NC(=O)c2ccc(-c3ccccc3Cl)cc2)CCSCC1 | -5.2% |
| CCOc1ccc(-c2cnc(NCc3cc(Cl)ccc3O)n2C)cc1 | 0.627% |
| CCC(C#CCN1CCOCC1)(CC)OC(C)=O | 3.01% |
| O=C1OC(c2cccc(F)c2)=N/C1=C\c1ccc(Cl)cc1Cl | 1.25% |
| Nc1ccc(S(=O)(=O)NC2=NC(=O)C([N+](=O)[O-])C(=O)N2)cc1 (centres unmarked) | 4.65% |
| COc1ccccc1C1=N/C(=C\c2ccccc2C(F)(F)F)C(=O)O1 | 7.61% |
| O=c1c(-c2ccccc2)c(N2CCCC2)c1=O | -0.255% |
| CCCC(CCC)=C(C#N)C(=O)OCC | -2.77% |
| Cc1ccc(OCC(=O)Nc2nnc(S(=O)(=O)N3CCCCCC3)s2)cc1C | 3.3% |
| CCOc1ccc2nc(SCC(=O)Nc3ccccc3C(N)=O)sc2c1 | -4.92% |

| Compound | % Inhibition @ 10 uM |
| --- | --- |
| O=C(CN1C(=O)C(c2ccccc2)Oc2cccnc21)NCCc1ccc(Cl)cc1 (centres unmarked) | -1.53% |
| CCOC(=O)N1CCN(C2CCC(CC)CC2)CC1 (centres unmarked) | 0.273% |
| COC(=O)c1cc2sccc2n1CC(=O)c1ccccc1 | -5.15% |
| CCOC(=O)c1ccc(-c2ccc(/C=C3\C(=O)ON=C3c3ccccc3)o2)cc1 | 2.24% |
| CCn1c(/C(C#N)=C/c2ccc(OC)cc2)nc2ccccc21 | -1.1% |
| CCc1ccccc1S(=O)(=O)Cc1ccc(C(=O)NCCc2ccccc2)o1 | -3.09% |
| Cc1cc2nc(O)c(O)nc2cc1S(=O)(=O)CCC(=O)NC1CCC(C)CC1 (centres unmarked) | -4.36% |
| c1ccc2cc(OCCCN3CCOCC3)ccc2c1 | -3.94% |
| Cc1ccc(C(=O)N2CCCC2)cc1[N+](=O)[O-] | 3.47% |
| CCOP(=O)(OCC)C1c2ccccc2OC(=O)C1C(C)=O (centres unmarked) | 3.34% |
| CCOC(=O)c1sc(N2C(=O)c3oc4ccc(F)cc4c(=O)c3C2c2cccc(O)c2)nc1C (centres unmarked) | 0.415% |
| N/C(=N\N=C\c1ccccc1Cl)c1nonc1N | 5.12% |
| Clc1ccccc1OCCCN1CCCCC1 | -1.05% |
| CCOc1cccc(=O)c2c(C)n(-c3ccc4c(c3)OCO4)c(C)c12 | 0.778% |
| COc1ccc(-n2cnc3nc4c(c(-c5ccccc5)c32)CCCC4)cc1 | 6.7% |
| Cc1c2cnn(CC(=O)NCc3ccccn3)c(=O)c2c(C)n1Cc1ccccc1 | 4.4% |
| COc1ccccc1CC(=N)NOC(=O)c1ccc(OC)c(OC)c1 | -5.16% |
| O=C(Nc1cc(Cl)cc(Cl)c1)c1cccc([N+](=O)[O-])c1 | 3.65% |
| O=C(NCC1CCCCC1)C1CCN(c2cnccn2)CC1 | 0.758% |
| COc1c(Cl)cc(Cl)cc1/C=C/c1cc(C(F)(F)F)nc(O)n1 | 5.2% |
| CC(C)SC1=NSC2=NC(=O)/C(=C\c3ccc(O)cc3)C(=N)N21 | 2.54% |
| Cc1nc(-c2ccc(Br)cc2)ncc1C(=O)O | -5.11% |
| COCc1cc(C)nc(NC2CC(C)(C)NC(C)(C)C2)c1C#N | 1.76% |
| COc1ccc(CN2CCN(c3ccccc3F)CC2)c(OC)c1C | 0.847% |
| Cc1ccc2nc(Cl)c3cc(C(=O)NC4=NC(=O)CN4C)sc3c2c1 | 4.74% |
